In PubChem BioAssay AID488969 (Vanderbilt High Throughput Screening Facility, 2010) one finds z-score data, which are given here for 74 compounds.

Each structure is given as a SMILES string. The full ranking holds about 110,000 compounds; the median of “z-score” is about -0.1, and the highest 2% start at about 2. This is one part of the list.

The target in this test is Metabotropic glutamate receptor 8 (Rattus norvegicus) (UniProt P70579). As to the kind of experiment: mGluR8 Gi/Go-coupled signaling modulation – cell-based, rat, thallium flux, HTS, primary screen (AID 488969). Particulars: HEK293 rat mGluR8, GIRK (G protein-gated inwardly rectifying potassium channel) thallium flux, FluoZin2; at 10 µM; stronger effect = higher value; submaximal glutamate (EC20) added with thallium.
Chain of UniProt P70579 (P70579 whole entry, looked up): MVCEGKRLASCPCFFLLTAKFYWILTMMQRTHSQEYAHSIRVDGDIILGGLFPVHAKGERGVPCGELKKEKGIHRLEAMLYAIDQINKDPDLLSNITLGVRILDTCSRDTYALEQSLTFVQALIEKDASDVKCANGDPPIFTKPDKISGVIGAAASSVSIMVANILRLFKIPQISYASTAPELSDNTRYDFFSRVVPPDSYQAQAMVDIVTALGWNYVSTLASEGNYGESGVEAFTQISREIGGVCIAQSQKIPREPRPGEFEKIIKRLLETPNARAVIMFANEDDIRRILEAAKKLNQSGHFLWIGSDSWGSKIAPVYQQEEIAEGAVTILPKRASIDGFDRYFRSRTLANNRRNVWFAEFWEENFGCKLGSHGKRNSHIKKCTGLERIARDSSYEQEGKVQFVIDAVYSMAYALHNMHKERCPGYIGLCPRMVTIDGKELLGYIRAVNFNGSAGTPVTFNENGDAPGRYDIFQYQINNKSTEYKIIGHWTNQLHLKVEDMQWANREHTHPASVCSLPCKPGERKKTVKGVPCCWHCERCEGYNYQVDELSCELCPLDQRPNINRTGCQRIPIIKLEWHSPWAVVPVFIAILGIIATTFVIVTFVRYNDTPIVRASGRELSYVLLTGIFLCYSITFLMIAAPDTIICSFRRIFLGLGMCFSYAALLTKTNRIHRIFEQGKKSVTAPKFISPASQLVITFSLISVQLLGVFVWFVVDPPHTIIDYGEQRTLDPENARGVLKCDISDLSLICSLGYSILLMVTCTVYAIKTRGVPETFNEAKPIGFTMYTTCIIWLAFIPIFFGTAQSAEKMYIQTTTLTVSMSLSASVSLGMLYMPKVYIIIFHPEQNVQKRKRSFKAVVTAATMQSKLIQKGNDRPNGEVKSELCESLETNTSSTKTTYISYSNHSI
In turn, `Clc1ccc(SCCCCN2CCNCC2)cc1` registered a z-score of 0.34.

The compound `Cc1cc(Oc2ccccc2)nc(-c2ccccc2)n1` registered a z-score of -0.099.

As for `COc1cc(/C=C(\C#N)C(=O)NCC2CCCO2)ccc1OC(C)C` (centres undefined), the z-score was -1.23.

As for `CCCCn1c(=O)c(F)cn(Cc2ccc(OC)c([N+](=O)[O-])c2)c1=O`, the z-score came out at 0.141.

`CC1=C(C(=O)OC(C)C)C(c2cccc(F)c2)N2C(=O)C(C)SC2=N1` (centres undefined) gave a z-score of -1.71.

`CC(=O)c1ccc2c(c1)N(C)c1ccccc1S2`: the z-score was -0.0109.

Compound `COC(=O)c1ccc(NC(=O)CSc2nnc(C(C)NC(=O)c3ccccc3Cl)n2C)cc1` (centres undefined) came in with a z-score of 0.368.

Regarding `O=C(N/N=C/c1ccc2c(c1)OCO2)c1ccc(Cn2cc([N+](=O)[O-])cn2)o1`, the z-score was -0.22.

For the compound `O=C1c2ccccc2C(=O)N1CCN1CCOCC1`, the z-score was found to be 0.138.

As for `Cc1cccc(NC(=O)Nc2cccc(Oc3c(F)c(F)c(F)c(F)c3F)c2)c1`, the z-score was 0.426.

Turning to `O=S(=O)(NCC1CCCO1)c1ccc(Oc2ccccc2)cc1` (centres undefined), the z-score came out at 0.278.

In turn, `Nc1cc(N)nc(SCC(=O)NNC(=O)c2ccc(Cl)cc2)n1` returned a z-score of 0.373.

In turn, `CCOC(=O)c1c(C)n(C)c2ccc(OC(C)C(=O)OC)cc12` (centres undefined) had a z-score of -0.484.

For `COc1ccc(N2CCN(C(=O)CSc3nnc(-c4cccnc4)n3-c3ccc(F)cc3)CC2)cc1`, the z-score is -0.412.

In the case of `O=C(CCC1COc2ccccc2O1)NCc1ccco1` (centres undefined), the z-score worked out at 0.438.

Take `CCCOc1ccccc1C1C(C(=O)OC)=CN(C(C)C)C=C1C(=O)OC`: the z-score was determined as 1.83.

For `COc1ccc(C2C(C#N)=C(N)Oc3c2oc(CO)cc3=O)c(OC)c1OC` (centres undefined), the z-score is -0.186.

`Cc1ccc(NC(=O)CN2CCC(C(=O)c3ccc4c(c3)OCCO4)CC2)cc1` returned a z-score of -0.152.

`CCc1nnc(NC(=O)CCC(=O)N2CCN(c3ccccn3)CC2)s1` returned a z-score of -0.0154.

In the case of `CNC(=O)CSc1nnnn1-c1ccc2c(c1)OCCO2`, the z-score amounted to 0.0843.

In the case of `COc1cnn(-c2cc(Oc3ccc(C)cc3)ncn2)c(=O)c1Cl`, the z-score was -0.202.

Compound `CC1CCCN(C(=O)CSc2nc3ccccc3o2)C1` (centres undefined) had a z-score of 0.161.

The compound `c1ccc(-c2ccnc3nc(-n4cccc4)nn23)cc1` returned a z-score of -0.562.

The compound `CSc1ccc(S(=O)(=O)NCc2ccccc2)cc1` came in with a z-score of 0.252.

Consider `NCCc1nnc(SCc2c(F)cccc2Cl)o1`, for which the z-score is -0.0454.

With `O=C(CCS(=O)CCC(=O)NCc1ccccc1)NCc1ccccc1`, the z-score is -0.151.

`CCOc1cccc(-n2nnnc2-c2ccc(OC)cc2)c1`: the z-score is -0.342.

`Cc1ccc(S(=O)(=O)/N=C(\c2ccc(Cl)cc2)N2CCOCC2)cc1`: the z-score was 0.0402.

In the case of `COc1ccccc1/C=N/n1c(N)c(C(=O)NC2CCCCC2)c2nc3ccccc3nc21`, the z-score turned out to be 0.122.

The compound `CCc1ccc(NC(=O)c2cc(-c3ccco3)on2)cc1` had a z-score of 0.0921.

As to `Cc1ccc(C(=O)Nc2sc3c(c2C(=O)O)CCCCC3)o1`, the z-score is -0.306.

Take `CCOC(=O)c1ccc(N2C(=O)CC(N3CCCC(C)C3)C2=O)cc1` (centres undefined): the z-score was determined as 0.101.

On to `CC1=C(C(=O)OC(C)C)C(c2ccccn2)n2ncnc2N1` (centres undefined), for which the z-score is -0.373.

`CCOC(=O)Nc1nc(C)c(C(=O)c2ccc(Cl)cc2)s1` showed a z-score of -0.13.

Turning to `COc1ccc(-n2c(=S)[nH]c3cc(C(=O)Nc4cccc(C)c4)ccc3c2=O)cc1`, the z-score was -0.179.

The compound `Cc1cc2c3c(c1)C1(SCC(=O)N1c1ccc(F)cc1)C(=O)N3C(C)(C)CC2C` (centres undefined) yielded a z-score of 0.792.

On to `COc1cc(=O)[nH]c(SCc2c(F)c(F)c(F)c(F)c2F)n1`, for which the z-score is 0.0446.

`CCCC(=O)Nc1ccc2c(c1)C(=O)N(CCC(=O)O)C2=O`: the z-score is -0.0953.

Consider `CCCc1[nH]nc2c1C(c1ccc(OC)cc1OC)C(C#N)=C(N)O2` (centres undefined), for which the z-score was -1.19.

Compound `COCCCNCCCCOc1c(Cl)cc(C)cc1Br` came in with a z-score of 0.275.

As to `O=C(COc1ccc(Cl)cc1)NNC(=O)c1ccccn1`, the z-score came out at 1.58.

The compound `COC(=O)c1ccc(Cc2ccc(C(=O)OC)o2)o1` came in with a z-score of 0.0151.

For `Clc1ccc(Cn2ccc(-c3ccc4c(c3)OCO4)n2)cc1Cl`, the z-score stood at 0.0456.

Compound `Cc1cccc(N2CCN(C(=O)c3csc4ccccc34)CC2C)c1` (centres undefined) had a z-score of -0.19.

Consider `O=S(=O)(c1ccc(S(=O)(=O)N(Cc2ccccc2)Cc2ccco2)cc1)N1CCCC1`, for which the z-score is -0.0707.

In turn, `CO/N=C/NC(=O)c1c(OC)ccnc1Oc1cccc(C(F)(F)F)c1` returned a z-score of 0.0176.

Turning to `Cc1ccccc1CS(=O)(=O)c1cnc2ccccc2n1`, the z-score is -0.131.

In turn, `COCCn1c(SCC(=O)N2CCCc3ccccc32)nc2ccccc2c1=O` showed a z-score of -0.842.

The compound `CCC(Oc1ccccc1)C(=O)Nc1nnc(C)s1` (centres undefined) had a z-score of 0.917.

`Cc1ccc(OCCNC(=O)C2CC(=O)N(c3ccc(C)cc3)C2)cc1` (centres undefined) returned a z-score of -0.0323.

`Nc1nncn1C(=O)c1ccccc1Cl` returned a z-score of -0.069.

As for `COc1cc(/C=C(\C#N)c2nc3ccccc3[nH]2)cc(Br)c1OCc1ccc(F)cc1`, the z-score was -0.315.

`O=C(CCC1CCCC1)NCc1cccs1`: the z-score came to 0.00205.

In the case of `COc1ccc(-n2c(NC(=O)c3ccc(Br)o3)c(C#N)c3nc4ccccc4nc32)cc1`, the z-score is -0.207.

On to `Cn1c(=O)[nH]c(=O)c2c1nc(N1CCc3ccccc3C1)n2CCSc1nc2ccccc2s1`, for which the z-score is -0.187.

Regarding `NC(=O)c1cccnc1Nc1cccc(F)c1`, the z-score was -0.19.

On to `CCn1c2ccccc2c2cc(NC(=O)CCCN3C(=O)CCC3=O)ccc21`, for which the z-score is -0.0727.

The compound `O=C(O)c1ccc(C(=O)Nc2cccc(NC(=O)C3CCCO3)c2)cc1` (centres undefined) had a z-score of 0.229.

The compound `Nc1cc(=O)[nH]c(SCc2cccc(Cl)c2)n1` returned a z-score of -0.406.

In turn, `COc1nc(OC)nc(N2CCC(C(=O)NCc3cccs3)CC2)n1` had a z-score of -1.94.

In turn, `C=C(C)CSCc1nc2ccccc2[nH]1` returned a z-score of 1.21.

As for `Cn1cc(Cl)c(C(=O)NC2CCCCCC2)n1`, the z-score was -0.0961.

The compound `CCCc1nnc(NC(=O)CC(=O)Nc2ccccc2C(=O)O)s1` returned a z-score of 0.243.

In turn, `N/C(CN1CCCC1=O)=N\O` showed a z-score of 0.169.

In the case of `Cc1cc(NS(=O)(=O)c2cccs2)no1`, the z-score came out at 0.12.

`COc1cccc(/C(O)=C2/C(=O)C(=O)N(CCN(C)C)C2c2ccccn2)c1` (centres undefined) registered a z-score of -0.249.

As to `Cc1ccc(C(=O)O)cc1NC(=S)NC(=O)Cc1ccccc1`, the z-score amounted to 0.287.

Take `CC1CC(OCC(O)CN2CCN(Cc3ccccc3)CC2)CC(C)(C)C1` (centres undefined): the z-score amounted to 0.26.

With `COc1ccc(-c2ccc(-c3noc(C(C)C)n3)c(OC)n2)cc1`, the z-score was -0.502.

Turning to `CN=C1S/C(=C\c2ccc(Sc3ccc(Cl)cc3)o2)C(=O)N1C`, the z-score was -0.579.

The compound `CCOC(=O)CSC1=C(C#N)C(=O)NC(c2ccc(OC)cc2)S1` (centres undefined) had a z-score of 0.083.

`Cc1c(NC(=S)NC(=O)Cc2ccccc2)cccc1C(=O)O`: the z-score is 0.11.

As to `c1ccc2c(c1)nc1n2CCN1`, the z-score was -0.158.

Compound `O=C(O)CCc1ccc(-c2ccc(Cl)cc2)o1` displayed a z-score of -0.193.
